Measurements as given in PubChem BioAssay AID360 (National Center for Advancing Translational Sciences (NCATS), 2006).
In all, about 48,000 compounds went through this assay and about 550 (1.1%) were called active. Another 4% or so got no clear call; they are omitted. No stated cut-off is given here; in the data, active means potency below about 15 µM; inconclusive means mostly about 16 µM to 33 µM; inactive means weaker than that. This is one part of the list.

molecular target: Lysosomal acid glucosylceramidase (Homo sapiens) (UniProt P04062); assay: Glucocerebrosidase; settings: purified enzyme, resorufin glucoside fluorescence (screen aimed at inhibitors), 20 min;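 further: the screen sought inhibitors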
Chain of UniProt P04062 (P04062 whole entry, looked up): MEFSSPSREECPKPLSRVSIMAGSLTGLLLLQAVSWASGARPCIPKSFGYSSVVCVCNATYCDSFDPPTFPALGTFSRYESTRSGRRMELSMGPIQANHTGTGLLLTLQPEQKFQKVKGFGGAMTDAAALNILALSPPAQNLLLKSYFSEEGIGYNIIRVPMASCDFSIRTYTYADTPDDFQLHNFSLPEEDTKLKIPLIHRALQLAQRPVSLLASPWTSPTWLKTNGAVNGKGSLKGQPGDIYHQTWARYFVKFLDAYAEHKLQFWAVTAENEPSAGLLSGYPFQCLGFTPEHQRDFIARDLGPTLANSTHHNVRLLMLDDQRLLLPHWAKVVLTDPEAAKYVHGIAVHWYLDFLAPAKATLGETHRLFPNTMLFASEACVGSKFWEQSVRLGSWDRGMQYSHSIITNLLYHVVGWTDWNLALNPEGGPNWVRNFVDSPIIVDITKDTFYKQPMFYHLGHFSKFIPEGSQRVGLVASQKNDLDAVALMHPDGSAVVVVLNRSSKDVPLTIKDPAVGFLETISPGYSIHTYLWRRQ
In short: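 Wild-type enzyme at 0.2 nM final in 50mM citric acid/KH2PO4, 10mM sodium taurocholate, 0.01% tween-20, pH 5.9, with resorufin beta-D-glucopyranoside at 30 uM final. Compounds titrated, 20 min at RT, red fluorescence read; AC50 from titration.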
Potency means the concentration at half of the fitted maximal effect.

Potency, inactive:
CN1CCN(c2ccccc2NC(=O)c2ccc(-c3ccccc3)cc2)CC1, O=C1OC2(c3ccccc3)C3CCCC2C13 > 76.9 µM, CCOc1cccc(C(=O)NC2CCCCC2)c1 > 76.9 µM, COc1ccc(-n2c(COc3ccc(C)cc3)nnc2SCC(N)=O)cc1 > 76.9 µM, O=C(NCc1nc2ccccc2[nH]1)c1ccc(S(=O)(=O)N2CCOCC2)cc1 > 76.9 µM, COc1ccc(CCNC(=O)Cc2nn(C)c(=O)c3ccccc23)cc1OC > 76.9 µM, O=S(=O)(C/C(=C/CO)S(=O)(=O)c1ccccc1)c1ccccc1 > 76.9 µM, c1cc2[nH]snc2c2nc(C3CC3)nc12 > 76.9 µM, CC(NS(=O)(=O)c1ccc(Br)cc1)C(N)=O (stereo unspecified) > 76.9 µM, CCN(CCO)C(=O)CC(c1ccccc1)c1cc(Br)ccc1O (stereo unspecified) > 76.9 µM, Cc1cc(C)n(-c2nc3ccccc3c(=O)n2OC2CCCCC2)n1 > 76.9 µM, Cc1ccc(-n2cnnn2)c2cccnc12 > 76.9 µM, CC(=O)Nc1ccc2c(c1)nc(CCN1CCOCC1)n2C > 76.9 µM, CCOC(=O)c1c(C)[nH]c(C(=O)C(C)OC(=O)c2cccc(OCc3c(C)noc3C)c2)c1C (stereo unspecified) > 76.9 µM, FC(F)(F)c1nnc2ccc(NCn3nnc4ccccc43)nn12 > 76.9 µM, CC(=O)c1cccc(NS(=O)(=O)N(C)C)c1 > 76.9 µM, COc1ccc(C)cc1NC(=O)c1[nH]c(C)c(C(C)=O)c1C > 76.9 µM, CCOC(=O)c1cccc(S(=O)(=O)N(CCO)Cc2cc3cc(OC)c(OC)cc3[nH]c2=O)c1 > 76.9 µM, O=C(NCc1ccco1)c1noc2c1CCCCC2 > 76.9 µM, O=C(COc1ccc(Cl)cc1)NC1CCSC1=O (stereo unspecified) > 76.9 µM, NC(=O)CS(=O)(=O)c1nc2ccccc2n1CC(=O)N1CCCCC1 > 76.9 µM, CC(C)CC(c1nnnn1Cc1ccco1)N1CCN(c2cccc(Cl)c2)CC1 (stereo unspecified) > 76.9 µM, Cc1ccc(-c2nc3ncccn3c2NC(=O)C2CC2)cc1 > 76.9 µM, COc1ccc(CNS(=O)(=O)c2ccc(C3CNC(=O)C3)cc2)cc1 (stereo unspecified) > 76.9 µM, CCOc1cc(-c2ccccc2)nc(N)n1 > 76.9 µM, COc1cc(NC(=O)CSCc2cnn(-c3ccccc3)c2-n2cccc2)cc(OC)c1 > 76.9 µM, CC(C)(C)n1nnnc1CN(Cc1ccco1)Cc1cc2cc3c(cc2[nH]c1=O)OCO3 > 76.9 µM, COc1ccc(C(=O)OCCN2CCOCC2)cc1OC > 76.9 µM, O=C(Cc1cccs1)NCc1ccccc1 > 76.9 µM, COc1cccc(C(=O)N2CCN(C(=O)c3cccc(F)c3)CC2)c1 > 76.9 µM, CSc1nc(C)c(C(=O)Nc2ccccc2)c(C)c1C#N > 76.9 µM, COCCn1nnnc1C(CC(C)C)N1CCN(c2cccc(OC)c2)CC1 (stereo unspecified) > 76.9 µM, CCOC(=O)c1c(NC(C)=O)no[n+]1[O-] > 76.9 µM, O=C(NCCc1c[nH]c2ccccc12)C1Cc2ccccc2CN1C(=O)c1ccco1 (stereo unspecified) > 76.9 µM, CCn1ccc(C(=O)Nc2ccc(N(C)C(C)=O)cc2)n1 > 76.9 µM, CC(O)/C=C/c1cccc[n+]1C (stereo unspecified) > 76.9 µM, CC(C)C(NC(=O)c1cccc(S(=O)(=O)N2CCOCC2)c1)C(=O)NCCc1ccccn1 (stereo unspecified) > 76.9 µM, O=C(NCC(=O)N(CC1CCCO1)C(C(=O)NC1CCCCC1)c1ccc(F)cc1)c1ccco1 (stereo unspecified) > 76.9 µM, CCOC(=O)C1CCN(C(=O)CCNC(=O)c2cc(OC)c(OC)c(OC)c2)CC1 > 76.9 µM, Brc1cc2c(cc1COc1ccc(-c3nn[nH]n3)cc1)OCO2 > 76.9 µM, O=C(NCc1cccs1)[C@@H]1CSC2c3ccccc3C(=O)N21 (stereo partly specified), Cc1occc1-c1nnc(SCC(=O)c2cc3ccccc3oc2=O)o1 > 76.9 µM, O=C(O)Cn1c2c(c3ccccc31)CCCC2 > 76.9 µM, COc1ccc(-c2cc(N3CCCC3)n3ncnc3n2)cc1 > 76.9 µM, COc1ccc(N2C(=O)NC3CC2(C)Oc2ccc(Br)cc23)cc1OC (stereo unspecified) > 76.9 µM, O=C(C1CCCO1)N(Cc1ccccc1)c1ccccc1 (stereo unspecified) > 76.9 µM, C=CCNC(=O)C(C#N)c1nc2ccccc2nc1N1CCN(Cc2ccccc2)CC1 (stereo unspecified) > 76.9 µM, CCOC(=O)COc1ccc(S(=O)(=O)N2CCc3ccccc3C2)cc1 > 76.9 µM, COc1ccc(C2CC(c3ccc(OC)cc3)n3nc(NC(=O)c4ccco4)nc3N2)cc1 (stereo unspecified) > 76.9 µM, COc1ccc(N2C(=O)C(CC(=O)Nc3ccccc3)N(Cc3ccc4c(c3)OCO4)C2=O)cc1 (stereo unspecified) > 76.9 µM, O=C(O)Cn1c(P(=O)(O)c2ccccc2)nc2ccccc21 > 76.9 µM, O=C1CC(c2ccc(Cl)cc2)n2nc(N3C(=O)c4ccccc4C3=O)nc2N1 (stereo unspecified) > 76.9 µM, COc1ccccc1N1C(=O)CC(Nc2ccc(N3CCOCC3)cc2)C1=O (stereo unspecified) > 76.9 µM, COc1ccc(-c2cc(C(F)(F)F)nc(SCC(=O)N3CCOCC3)n2)cc1OC > 76.9 µM, CCC(=O)Nc1ccc(C(=O)Nc2ccc3c(c2)C(=O)N(CC2CCCO2)C3=O)cc1 (stereo unspecified) > 76.9 µM, Cc1ccc2nc(NCCCNC(=O)c3cnccn3)c(C#N)cc2c1, CC(C)(C)c1nc2scc(-c3cccs3)c2c(=O)o1, C/[N+]([O-])=C1\Cc2ccccc2C1=O > 76.9 µM, Cc1ccc(C(C(=O)NC(C)(C)C)N(CC2CCCO2)C(=O)Cn2nnc(-c3ccc(C)o3)n2)cc1 (stereo unspecified) > 76.9 µM, O=C(CN1C(=O)C2CCCN2C(=O)c2ccccc21)Nc1ccccc1-n1cccc1 (stereo unspecified) > 76.9 µM, CC1CCN(C(=O)c2ccc(NS(C)(=O)=O)cc2)CC1 > 76.9 µM, O=C(c1cccs1)N1CCN(Cc2cccnc2)CC1 > 76.9 µM, O=C1c2ccccc2C(=O)N1Cc1nc2ccccc2o1 > 76.9 µM, CCC(=O)N1CCN(c2ccccc2NC(=O)c2cccc(C)c2)CC1 > 76.9 µM, O=C(NCCCN1CCN(CCCNC(=O)c2ccccc2F)CC1)c1ccccc1F > 76.9 µM, Cc1ccc(-c2nnn(CC(=O)N3CCCCC3)n2)c(-n2cnnn2)c1 > 76.9 µM, CCn1c(=O)c(C(=O)CN2CC(C)OC(C)C2)c(N)n(Cc2ccccc2)c1=O (stereo unspecified) > 76.9 µM, Cc1ccc(OC(C)C(=O)N2CCc3ccccc32)cc1 (stereo unspecified) > 76.9 µM, COc1ccc(-c2cc(C(=O)NCc3ccc(Cl)cc3)no2)cc1OC > 76.9 µM, CCOC(=O)C1CCN(C(=O)c2sc3nc(-c4ccccc4)cn3c2C)CC1 > 76.9 µM, C/C=C/CSc1nc2c(c(=O)[nH]c(=O)n2C)n1CCC > 76.9 µM, O=C1CC(C(=O)N(c2ccc(F)cc2)C(C(=O)NC2CCCC2)c2ccccn2)CS1 (stereo unspecified) > 76.9 µM, O=C(Nc1ccccc1F)c1ccncc1 > 76.9 µM, COC(=O)C1(S(=O)(=O)c2cccc3nsnc23)CC1 > 76.9 µM, CCCn1c(=O)n(C)c(=O)c2c3oc(=O)c(NC(=O)c4ccc(F)cc4)cc3[nH]c21 > 76.9 µM, Cc1cc(C)cc(NC(=O)C2CCN(S(=O)(=O)c3c(C)n[nH]c3C)CC2)c1 > 76.9 µM, CCOc1nc(-c2ccc(OC)cc2)ccc1-c1noc(C)n1 > 76.9 µM, COCCNC(=O)C(c1ccco1)N(C(=O)Cn1nnc2ccccc21)c1cccc(C)c1C (stereo unspecified) > 76.9 µM, COc1ccc(C2C(C(=O)NCC3CCCO3)CCC(=O)N2c2ccc3c(c2)OCO3)cc1 (stereo unspecified) > 76.9 µM, COCC(C)NC(=O)c1cc(-c2ccccc2OC)on1 (stereo unspecified) > 76.9 µM, COc1ccc(CN2CCCC(C(=O)N(C)Cc3ccccc3)C2)cc1OC (stereo unspecified) > 76.9 µM, CCOC(=O)c1[nH]c2ccc(OCC)cc2c1NC(=O)CN1CCN(c2ccccn2)CC1 > 76.9 µM, CCOC(=O)N1CCN(C(=O)CCn2nc(-c3ccc(Cl)cc3)ccc2=O)CC1 > 76.9 µM, CC(=O)c1cccc(-n2c(CCC(=O)O)ccc2-c2cccs2)c1 > 76.9 µM, CCSc1nnc(NC(=O)CSc2nc3c(c(=O)n2-c2ccccc2)SCC3)s1 > 76.9 µM, CCn1ncc2c1C(=O)NC1c3ccccc3C(=O)N21 (stereo unspecified), COc1cccc(-c2nnc(N(C)C(=O)c3ccno3)s2)c1 > 76.9 µM, COCC(=O)NCCc1nc(-c2ccccc2)cs1 > 76.9 µM, CCC(C)[C@H](NC(=O)NCc1ccccc1)C(=O)O (stereo partly specified) > 76.9 µM, CC1CCN(CCCNC(=O)c2cn(C)c3ccc(S(=O)(=O)N4CCCC4)cc3c2=O)CC1 > 76.9 µM, COc1ccc(N(CC(=O)Nc2ccc(S(=O)(=O)N3CCCC3)cc2)S(C)(=O)=O)cc1OC > 76.9 µM
